Reference: paper PMC4336329 (PLoS ONE, 2015)
About 14,000 (4.5%) of roughly 310,000 compounds showed an effect of 50% or more. Effects have a minus sign here. The list shows a part of the results.

Each compound was assayed against human ether-à-go-go-related gene (hERG) potassium channel (human, UniProt Q12809) (assay: primary screen, population patch clamp on CHO cells stably expressing hERG).
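Further: peak tail current of the secondary pulse compared with the same well before compound.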

human ether-à-go-go-related gene (hERG) potassium channel, sequence (Q12809 whole entry, looked up): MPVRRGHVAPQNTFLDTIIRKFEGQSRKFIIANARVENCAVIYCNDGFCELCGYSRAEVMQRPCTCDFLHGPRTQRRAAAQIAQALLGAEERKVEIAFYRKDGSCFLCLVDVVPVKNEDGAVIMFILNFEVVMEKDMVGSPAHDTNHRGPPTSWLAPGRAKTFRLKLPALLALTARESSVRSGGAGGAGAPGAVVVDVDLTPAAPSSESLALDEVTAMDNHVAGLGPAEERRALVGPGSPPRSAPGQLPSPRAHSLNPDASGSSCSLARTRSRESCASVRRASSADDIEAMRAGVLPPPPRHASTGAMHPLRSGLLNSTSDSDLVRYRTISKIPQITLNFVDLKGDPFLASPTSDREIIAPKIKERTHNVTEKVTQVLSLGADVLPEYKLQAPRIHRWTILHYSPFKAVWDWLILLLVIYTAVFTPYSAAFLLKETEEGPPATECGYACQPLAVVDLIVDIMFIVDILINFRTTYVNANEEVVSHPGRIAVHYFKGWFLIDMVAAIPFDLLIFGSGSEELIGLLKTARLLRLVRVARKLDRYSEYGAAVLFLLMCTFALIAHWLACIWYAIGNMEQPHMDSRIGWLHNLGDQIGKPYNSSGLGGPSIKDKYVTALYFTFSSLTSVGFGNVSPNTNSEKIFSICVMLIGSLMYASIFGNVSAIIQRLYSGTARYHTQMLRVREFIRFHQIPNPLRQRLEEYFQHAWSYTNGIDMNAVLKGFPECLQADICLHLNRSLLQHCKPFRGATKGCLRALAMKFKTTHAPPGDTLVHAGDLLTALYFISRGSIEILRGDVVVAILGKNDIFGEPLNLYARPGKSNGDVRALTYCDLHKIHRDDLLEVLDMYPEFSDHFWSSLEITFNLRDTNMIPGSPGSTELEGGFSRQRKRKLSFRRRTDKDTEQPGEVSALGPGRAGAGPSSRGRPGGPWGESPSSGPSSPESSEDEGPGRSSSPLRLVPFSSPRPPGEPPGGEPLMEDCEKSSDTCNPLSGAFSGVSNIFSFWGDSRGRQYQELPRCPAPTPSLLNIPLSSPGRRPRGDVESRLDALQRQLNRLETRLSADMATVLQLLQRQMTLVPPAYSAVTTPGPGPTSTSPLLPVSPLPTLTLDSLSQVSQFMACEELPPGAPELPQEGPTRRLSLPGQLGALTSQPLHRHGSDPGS

Going from `CCc1ccccc1N(CC(=O)NC(C)c1ccccc1)S(C)(=O)=O` (centres unmarked) to `CC(CCc1ccccc1)NC(=O)Cc1ccc(Br)cc1` (centres unmarked), the “hERG current change (%, negative = inhibition) at 10uM” value falls from 20.5% to 8.87%.

Going from `O=C(C1=C(O)C(=O)N(CCN2CCOCC2)C1c1ccccc1)c1cccs1` (centres unmarked) to `CCN1C(=O)C(O)(CC(=O)c2ccccn2)c2ccccc21` (centres unmarked), the “hERG current change (%, negative = inhibition) at 10uM” value rises from -2.27% to 8.41%.

Compared with `CN1C2=NCCN2C(=O)c2ccccc21`, `Cc1cc(NC2CCCC2)n2nc(C)c(-c3ccccc3)c2n1` is higher in “hERG current change (%, negative = inhibition) at 10uM” value: -2.32% for the first, 6.31% for the second.

Compared with `O=C(NCCc1ccccn1)c1cccc(S(=O)(=O)N2CCCCCC2)c1`, `O=C(c1ccc(Cl)c(S(=O)(=O)N2CCCCCC2)c1)N1CCN(c2ccc(O)cc2)CC1` is lower in “hERG current change (%, negative = inhibition) at 10uM” value: -27% for the first, -50.4% for the second.

First: CN(C)c1cccc(NC(=O)CCc2ccccc2)c1
Second: Cc1cccc(NC(=O)CSc2nc(NS(=O)(=O)c3ccccc3)cc(=O)[nH]2)c1
The “hERG current change (%, negative = inhibition) at 10uM” value of the first is lower: 0.44% for the first, 28.4% for the second.

First: CCc1ccc(-c2ccc(SCc3ccccn3)nn2)cc1
Second: O=c1cc(-c2ccccc2)nc(SCc2ccccc2)[nH]1
The “hERG current change (%, negative = inhibition) at 10uM” value of the first is lower: 3.91% for the first, 8.53% for the second.

Going from `O=C1COc2ccc(C(=O)CSc3nnc(Cc4cccs4)n3-c3ccc(Cl)cc3)cc2N1` to `O=C(Nc1oc2ccccc2c(=O)c1-c1ccc(Cl)cc1)c1ccco1`, the “hERG current change (%, negative = inhibition) at 10uM” value falls from -9.62% to -20.4%.

Going from `CCC12CN3CCN(CC(C3)C1O)C2` (centres unmarked) to `Cc1cc(C)c(S(=O)(=O)N2CCCC(C(=O)N3CCCC3)C2)c(C)c1` (centres unmarked), the “hERG current change (%, negative = inhibition) at 10uM” value falls from -6.76% to -20.8%.

Compared with `Cc1cc(C(=O)N/N=C/c2c[nH]c3ccccc23)cs1`, `CCCc1nc2ccccc2c(=O)n1NC(=O)c1c(O)c2ccccc2[nH]c1=O` is higher in “hERG current change (%, negative = inhibition) at 10uM” value: -8.33% for the first, 8.41% for the second.

First: CCc1nnc(-n2nc(C)cc2-c2ccccc2)n1N.Cl
Second: Cc1ccc(C)c(-n2c(-c3cccnc3)n[nH]c2=S)c1
The “hERG current change (%, negative = inhibition) at 10uM” value of the first is lower: -3.8% for the first, 23% for the second.

First: O=C1[C@H]2[C@H](C=CC[C@H]2C(=O)N2CCOCC2)CCN1Cc1ccc(Cl)c(Cl)c1
Second: COCCC(=O)N1CCC(Oc2ccc(C(=O)N3CCC[C@H]3CO)cc2)CC1
The “hERG current change (%, negative = inhibition) at 10uM” value of the first is lower: -3.89% for the first, 23% for the second.

Compared with `CCN(CC)CCN(C)Cc1ccc(Br)cc1`, `CCN(CCCNC(=O)CN(C)S(=O)(=O)c1ccc2c(c1)CCC(=O)N2)c1cccc(C)c1` is higher in “hERG current change (%, negative = inhibition) at 10uM” value: -43.2% for the first, -7.06% for the second.

Going from `CCOC(=O)C1=C(C)NC(C)=C(C(=O)OCC)C1c1ccc([N+](=O)[O-])s1` to `COc1ccc2c(c1OC)C(=O)N(C(C)C(=O)O)C2=O` (centres unmarked), the “hERG current change (%, negative = inhibition) at 10uM” value rises from -12.9% to 10.1%.

Going from `Cn1cnc2cc(NC(=O)c3ccc(Cl)cc3)ccc21` to `O=C(Nc1c(F)cc(F)cc1F)c1cccn(Cc2ccccc2)c1=O`, the “hERG current change (%, negative = inhibition) at 10uM” value falls from -18.9% to -39.7%.

First: COC/C=C/C1=CC2=CC(=O)C(C)(OC(=O)c3cnc4ccccc4n3)C(=O)C2=CN1c1ccc(OC)cc1 (centres unmarked)
Second: CCN1CCN(c2nc3ccccc3nc2C(C#N)C(=O)OCc2ccccc2)CC1 (centres unmarked)
The “hERG current change (%, negative = inhibition) at 10uM” value of the first is higher: -4.95% for the first, -73.7% for the second.

Compared with `CCOc1ccc2[nH]c3nc(SCC(=O)NC4CCCC4)nnc3c2c1`, `O=C(NC1CCCCC1)C(c1ccco1)N(C(=O)c1csnn1)c1cccc(Cl)c1` (centres unmarked) is lower in “hERG current change (%, negative = inhibition) at 10uM” value: 14.1% for the first, 4.93% for the second.

First: C=CCNC(=S)NNC(=O)CSc1nc2ccccc2s1
Second: C=CCn1c(=O)c2ccccc2n2c(SCc3nc4ccccc4s3)nnc12
The “hERG current change (%, negative = inhibition) at 10uM” value of the first is higher: -4.31% for the first, -34.4% for the second.

Going from `Cc1nc2ccccc2n1Cc1ccccc1` to `COc1ccc2cc(-c3ccn[nH]3)ccc2c1`, the “hERG current change (%, negative = inhibition) at 10uM” value rises from 15.8% to 17.6%.

Compared with `O=C(c1ccncc1)N1CCN(S(=O)(=O)c2ccc(F)cc2)CC1`, `CCOC(=O)N1CCN(C2=C(NS(=O)(=O)c3ccc(NC(C)=O)cc3)C(=O)c3ccccc3C2=O)CC1` is lower in “hERG current change (%, negative = inhibition) at 10uM” value: 15.2% for the first, -38.3% for the second.

First: Cc1cccc(NC(=O)CN2C(=O)N/C(=C/c3cc(C)n(C(C)C)c3C)C2=O)c1
Second: CC(C)CCn1c(Oc2ccc(Cl)cc2)nc2c1c(=O)n(C)c(=O)n2C
The “hERG current change (%, negative = inhibition) at 10uM” value of the first is higher: 0.258% for the first, -15.1% for the second.

Going from `CCc1n(CC(O)COC2CCCCC2)c2ccccc2[n+]1C.[I-]` (centres unmarked) to `COc1cccc(C(=O)C2CCCN(Cc3cccn3-c3cccnc3)C2)c1` (centres unmarked), the “hERG current change (%, negative = inhibition) at 10uM” value falls from 21.4% to -29%.

First: C=CCNC(=O)NC(=O)COC(=O)c1cccnc1SC
Second: C/C=C(\C)C(=O)OC(C)(C)[C@@H]1Cc2cc3ccc(=O)oc3cc2O1
The “hERG current change (%, negative = inhibition) at 10uM” value of the first is higher: -3.33% for the first, -21.7% for the second.
